Results reported in PubChem BioAssay AID504466 (National Center for Advancing Translational Sciences (NCATS), 2011).
The whole screen tested about 330,000 compounds, of which about 4,200 (1.3%) were called active. Inconclusive means that the source gave no clear call. Such entries were picked first, then a sample of the others. Calls come from the whole dose curve; as a rule, active = well fitted activation curve with a large enough effect; inconclusive = small, poorly fitted or top-dose-only effect; inactive = no such curve, though single readings can be large or run the other way. Potencies of inconclusive entries are doubtful fits and often do not repeat.

experiment: qHTS screen for small molecules that induce genotoxicity in human embryonic kidney (HEK293T) cells expressing luciferase-tagged ELG1; conditions: HEK293T ELG1-luciferase reporter, luminescence, 16 h; series mostly up to 46 µM; activity change, positive = activation: at the top concentration; note: nearly all actives have a fitted effect of over 60% in size; for activity change, positive = activation: % of control where 0% means no effect
Summary of the method: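 Genotoxicity was scored as increased ELG1-luciferase reporter signal, measured by ONE-Glo luminescence (30 min, room temperature). Compound or vehicle exposure of the HEK293T reporter cells lasted 16 hr at 37°C.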
Potency is the fitted concentration of half-maximal effect; tags give direction and shape of the fitted curve.

| Structure (SMILES) | activity change, positive = activation | Potency |
| --- | --- | --- |
| Oc1c(Br)cc2oc3c(c2c1CNCc1ccccc1)CCCC3 | inactive: -5.31% | – |
| O=C(c1ccc(F)cc1)n1c(=S)nc2ccccn21 | – | active: 0.651 µM |
| O=C(CCNS(=O)(=O)c1ccccc1)Nc1ccccc1 | inactive: 5.15% | – |
| COCc1cc(C)nc(Oc2ccccc2)c1C#N | inactive: 10.5% | – |
| Cc1cc(C)n2cc(CSc3nc4ccccc4s3)nc2n1 | – | inconclusive: 5.8 µM [activator, full curve, poor fit] |
| O=C(Nc1ccncc1)c1cncc(Br)c1 | inactive: -28.4% | – |
| C/C(=N\NC(=O)c1cccc(S(=O)(=O)Nc2cccc(Cl)c2)c1)c1cccs1 | inactive: -4.56% | – |
| Cc1nc2ccc(N=NC3=C(O)CCCC3=O)cc2s1 | – | inconclusive: 14.6 µM [activator, partial curve] |
| O=C(NCc1ccccn1)c1ccc(-c2ccccc2)cc1 | – | inconclusive: 18.3 µM [activator, partial curve, poor fit] |
| CCOc1ccc(Br)cc1C1=NN(C(C)=O)C(c2ccc([N+](=O)[O-])s2)O1 (configuration not stated) | – | inconclusive: 32.6 µM [activator, partial curve, poor fit] |
| COc1ccc(C(=O)NCC(=O)OCC(=O)Nc2sccc2C#N)cc1OC | – | inconclusive: 16.4 µM [activator, partial curve, poor fit] |
| COc1ccccc1-c1noc(-c2ccco2)n1 | – | active: 6.51 µM |
| COC(=O)c1ccc(OS(=O)(=O)N(C)C)cc1 | – | inconclusive: 18.3 µM [activator, partial curve, poor fit] |
| O=C(CC(SCc1ccco1)c1ccc(O)cc1)c1cccs1 (configuration not stated) | – | inconclusive: 25.9 µM [activator, partial curve, poor fit] |
| COC(=O)c1ccc(N=NN2CCCCCC2)cc1 | – | inconclusive: 13 µM [activator, partial curve] |
| Cc1c(C(=O)Nc2cnccn2)oc2ccccc12 | – | inconclusive: 25.9 µM [activator, partial curve, poor fit] |
| CC(=O)NC(=S)Nc1cccc(S(=O)(=O)NC2=NCCC2)c1 | inactive: -0.731% | – |
| O=C(N/N=C/c1ccc2c(c1)OCO2)c1sc2cccc(Cl)c2c1Cl | inactive: 2% | – |
| O=S(=O)(Cc1cc(-c2ccccc2)no1)c1ccccc1 | – | inconclusive: 14.6 µM [activator, partial curve, poor fit] |
| O=C1N[C@@H](c2ccccc2)COC(=O)[C@@H](Cc2ccc(F)cc2)CC/C=C/C[C@@H]1CC(=O)N(CCO)Cc1ccccc1 | inactive: -8.72% | – |
| COc1ccc(/C=C/C(=O)N(C(C)C)C(C)C)cc1Br | – | inconclusive: 29.1 µM [activator, single point] |
| Cc1cc(=O)n2nc(-c3ccccc3)sc2c1C#N | – | inconclusive: 20.6 µM [activator, partial curve, poor fit] |
| CCCn1nnc(NC(=O)/C=C/c2ccco2)n1 | inactive: -0.706% | – |
| Cc1nc2nc(-c3ccc(Cl)cc3)cn2nc1C | – | inconclusive: 0.891 µM [activator, full curve, poor fit] |
| Cc1ccc(SCCC(=O)N2CCC(C)CC2)cc1 | – | inconclusive: 18.4 µM [activator, single point] |
| Cc1nn(C)c(C)c1CNC(=O)Nc1ccc2c(c1)OCO2 | – | inconclusive: 20.6 µM [activator, partial curve, poor fit] |

| Structure (SMILES) | activity change, positive = activation | Potency |
| --- | --- | --- |
| Cc1cccc(N=Nc2ccc(O)c3ncccc23)c1 | – | active: 11.6 µM |
| C=CCNc1oc(-c2ccc(OC)cc2)nc1C#N | – | active: 14.6 µM |
| CC(NC(=O)c1ccccc1NC(=O)c1ccncc1)c1ccccc1 (configuration not stated) | inactive: 0.866% | – |
| Cc1ccccc1NC1=NCC(c2ccc([N+](=O)[O-])cc2)S1 (configuration not stated) | – | inconclusive: 32.6 µM [activator, partial curve, poor fit] |
| Cc1ccc(Sc2cnc3ccccc3n2)cc1 | – | active: 2.59 µM |
| Cc1nn(C)c(C)c1S(=O)(=O)NC1CCCC1 | inactive: 0.124% | – |
| Cc1cc(C)n(C(N)=NC(=O)c2ccc([N+](=O)[O-])cc2)n1 | – | inconclusive: 4.61 µM [activator, partial curve, poor fit] |
| CCSc1nc(N)nc(-c2cccs2)c1C#N | – | active: 20.6 µM |
| COc1cccc(/C=N/NC(=O)CSc2ccccc2C)c1O | – | inconclusive: 29.1 µM [activator, single point] |
| COc1cccc(NC(=O)CSc2nc3ccccc3nc2N2CCOCC2)c1 | inactive: -4.62% | – |
| Cc1cc2nc(-c3ccc(SCC(=O)N4CCc5ccccc54)nc3)[nH]c2cc1C | – | inconclusive: 3.66 µM [activator, full curve, poor fit] |
| CCOC(=O)c1cnc(SCC(C)C)nc1N | – | inconclusive: 6.51 µM [activator, partial curve] |
| COc1ccc(-c2nn(-c3ccccc3)cc2CO)cc1 | – | inconclusive: 18.4 µM [activator, single point] |
| CC(=O)Nc1ccc(Sc2ncnc3scc(-c4ccccc4)c23)cc1 | inactive: -0.0114% | – |
| CC(=O)Oc1ccc(-c2cccc(C(=O)N3CCCCC3)c2)cc1 | – | inconclusive: 25.9 µM [activator, partial curve, poor fit] |
| Cc1ccc(NC(=O)c2cc(C)nc3ccccc23)cc1 | inactive: 1.23% | – |
| CC(=O)Oc1cccc(/C=c2\sc3nc(-c4ccco4)nn3c2=O)c1 | – | inconclusive: 16.4 µM [activator, partial curve, poor fit] |
| COC(=O)c1sc(NC(=O)c2c(C)noc2C)nc1C | – | inconclusive: 23.1 µM [activator, partial curve, poor fit] |
| COc1cccc(/C=N/NC(=O)CNC(=O)CCc2ccccc2)c1O | – | inconclusive: 18.3 µM [activator, partial curve, poor fit] |
| CCN1C(=O)c2cccc3c(S(=O)(=O)Nc4nc(C)cs4)ccc1c23 | – | inconclusive: 20.6 µM [activator, partial curve, poor fit] |
| Cc1ccc(NC(=O)CSc2nncn2N)cc1C | inactive: 4.85% | – |
| COc1ccc(/C=C/C(=O)O/N=C(\N)c2ccccc2)cc1OC | – | inconclusive: 18.4 µM [activator, partial curve] |
| COc1ccc(-n2nc3ccc(N)cc3n2)cc1Cl | – | inconclusive: 16.4 µM [activator, partial curve] |
| COc1ccc(-c2nc(-c3cccnc3)no2)cc1OC | – | inconclusive: 11.6 µM [activator, partial curve, poor fit] |
| CCOc1ccc(NC(=O)CSc2nccn2C)cc1 | – | inconclusive: 16.4 µM [activator, partial curve, poor fit] |
| Nn1c(-c2ccccn2)nnc1-c1ccccn1 | – | inconclusive: 20.6 µM [activator, partial curve] |

| Structure (SMILES) | activity change, positive = activation | Potency |
| --- | --- | --- |
| O=C(Cc1ccccc1)N1CCc2ccccc21 | – | inconclusive: 29.1 µM [activator, partial curve, poor fit] |
| CC(=O)Nc1ccc(NC(C)=O)s1 | inactive: -7.05% | – |
| COc1ccc(C(=O)CCC(=O)N2CCN(c3cc(C)ccc3C)CC2)cc1 | inactive: 0.351% | – |
| N#Cc1nc(-c2ccc(Cl)cc2)oc1NCC1CCCO1 (configuration not stated) | – | inconclusive: 18.3 µM [activator, single point] |
| CC(C)CCN(C(=O)C1CSC2(C)CCC(=O)N12)c1c(N)n(Cc2ccccc2)c(=O)[nH]c1=O (configuration not stated) | inactive: -4.93% | – |
| CC(C)(C)c1cc(NC(=O)Nc2ccccc2)no1 | – | inconclusive: 2.91 µM [activator, full curve] |
| COc1cc(NS(C)(=O)=O)ccc1Nc1c2ccccc2nc2ccccc12 | – | inconclusive: 0.82 µM [activator, full curve, poor fit] |
| COCCNC(=S)N/N=C(\C)c1ccccc1O | inactive: 4.68% | – |
| Cc1cc(C(=O)Nn2c(-c3ccc(Br)cc3)nc3ccccc3c2=O)ccc1[N+](=O)[O-] | inactive: -4.73% | – |
| Cc1ccc(OCC(=O)O/N=C(\N)c2cccnc2)cc1 | – | inconclusive: 20.6 µM [activator, partial curve, poor fit] |
| CC(=O)c1cccc(NC(=O)CC2S/C(=N/N=C/c3ccccc3)NC2=O)c1 (configuration not stated) | inactive: 4.69% | – |
| CCCNC(=O)c1c(Cl)cnn1-c1ccc(C)cc1 | – | inconclusive: 10.3 µM [activator, partial curve] |
| O=C(COc1ccc2c(c1)CCC2)N1CCc2ccccc21 | – | active: 11.6 µM |
| O=C(COc1nncc2ccccc12)Nc1ccc(F)c(F)c1 | inactive: -1.12% | – |
| CC(=O)c1ccc(C(=O)N2CCCC(N3CCN(c4ccc(F)cc4)CC3)C2)s1 (configuration not stated) | inactive: -0.508% | – |
| COc1ccc(-n2cnc3cc(C(=O)N4CCOCC4)ccc32)cc1 | – | inconclusive: 18.3 µM [activator, partial curve, poor fit] |
| NC(=O)[C@@H]1CCCN1Cc1nc(Cc2ccccc2F)no1 | inactive: -0.877% | – |
| Oc1ccc(N=Nc2cccc(Cl)c2)cc1C=Nc1ccc(N2CCOCC2)cc1 | inactive: 7.31% | – |
| COc1ccccc1NC(=O)CN1C(=O)NC2(CCCc3ccccc32)C1=O (configuration not stated) | inactive: 2.42% | – |
| Cc1cccc(NC(=S)NC(=O)c2ccco2)c1C | – | inconclusive: 9.2 µM [activator, partial curve, poor fit] |
| COc1ccc2c(OC)c3ccoc3nc2c1OC | – | inconclusive: 18.3 µM [activator, partial curve, poor fit] |
| CCC(=O)Nc1cc(-c2nn(C)c(=O)c3ccccc23)ccc1OC | – | inconclusive: 23.1 µM [activator, partial curve, poor fit] |
| Cc1[nH]nc(-c2ccc(O)c(C)c2O)c1Oc1ccccc1 | inactive: 0.142% | – |
| COc1ccccc1NC(=O)NC1(C(=O)N2CCCCC2)CCCCC1 | inactive: 0.661% | – |
| O=C(Nc1ccn(Cc2ccccc2)n1)c1n[nH]c([N+](=O)[O-])c1Cl | – | inconclusive: 1.84 µM [activator, full curve] |
